Assay results taken from PubChem BioAssay AID485344 (National Center for Advancing Translational Sciences (NCATS), 2010).
Hit rate of the full screen: of about 340,000 compounds, about 6,900 (2%) were called active. Rule as the data show it: active = inhibition above about 30%; inactive = below that, where a call was filed. This is a selection; strong and weak results do not stand in their true shares. The source gives no active or inactive call for entries shown without one.

target: D(2) dopamine receptor (Homo sapiens) (UniProt P14416); assay: HTS Assay for Allosteric Antagonists of the Human D2 Dopamine Receptor: Primary Screen for Antagonists; details: HEK293 TREx D2 cells, calcium flux, dopamine EC80; at 10 µM; stronger effect = higher value; also: 0% is about no effect
Sequence of UniProt P14416 (P14416 whole entry, looked up): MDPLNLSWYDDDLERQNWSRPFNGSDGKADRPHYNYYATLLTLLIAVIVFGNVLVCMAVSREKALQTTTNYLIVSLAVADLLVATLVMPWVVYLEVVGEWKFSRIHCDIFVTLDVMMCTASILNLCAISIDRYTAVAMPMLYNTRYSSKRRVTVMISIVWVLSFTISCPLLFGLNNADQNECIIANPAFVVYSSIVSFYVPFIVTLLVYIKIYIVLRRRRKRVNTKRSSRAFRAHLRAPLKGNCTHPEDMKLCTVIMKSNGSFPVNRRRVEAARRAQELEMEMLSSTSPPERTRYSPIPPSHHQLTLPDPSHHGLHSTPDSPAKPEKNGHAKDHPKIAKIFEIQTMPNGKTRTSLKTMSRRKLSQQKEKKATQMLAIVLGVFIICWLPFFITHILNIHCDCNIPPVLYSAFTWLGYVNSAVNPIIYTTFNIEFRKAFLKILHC
Outline: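 HEK293 T-REx D2 cells, tet-induced, calcium dye no-wash. Cpd pintool add, 180 s kinetic, then EC80 DA, 180 s kinetic. Ca flux read.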

Compound | inhibition
Cc1ccc(F)cc1NC(=O)CSc1nc(-c2cccs2)cc(C(F)(F)F)n1 | 8.87%
Cc1ccc(NC(=O)CN2C(=O)CC(c3ccco3)Sc3ccccc32)cc1Cl (stereo not given) | 3.61%
COc1ccc(NC(=O)c2oc3ccccc3c2NC(=O)c2cc3ccccc3o2)c(OC)c1 | -3.36%
CCOC(=O)c1ccc(NC(=O)CS(=O)(=O)Cc2nc(-c3ccc(C)cc3)oc2C)cc1 | 0.665%
CC1CCN(CCCCOc2ccccc2Br)CC1 | active: 90.7%
COC(=O)c1c(-c2ccc(Cl)cc2)noc1N1CCN(c2ccc(C(C)=O)cc2)CC1 | 0.585%
CCCNC(=O)CCc1c(C)nc2nc(CNC(=O)c3ccccc3)nn2c1C | 1.82%
O=C(Nc1cccc(-c2ccc(N3CCOCC3)nn2)c1)c1ccc(Cl)cc1 | active: 30.6%
COC(=O)c1cnc(N2CCN(c3ccc(OC)cc3)CC2)c2ccccc12 | 2.34%
Cc1ccccc1NS(=O)(=O)c1ccc2[nH]cc(C(=O)NCCc3ccccc3)c(=O)c2c1 | 13.4%
COc1ccc(OCCCC(=O)NCC(C)C)cc1 | active: 30.6%
Cc1ccccc1OCC(=O)Nc1c(C(=O)Nc2ccccc2F)oc2ccccc12 | -2.09%
CCOc1ccc(NC(=O)N2CC3CCCN3c3ccccc32)cc1 (stereo not given) | 0.703%
CC(=O)NNc1ncnc2c1cnn2-c1ccccc1 | -15.6%
COc1ccc(-c2noc(CSc3nnc(C)n3-c3ccc(F)cc3)n2)cc1 | 8.05%
Cc1cn2c(=O)c(S(=O)(=O)Nc3ccc(OC(F)(F)F)cc3)c(C)nc2s1 | -18.4%
COc1ccc(NC(=O)C(c2ccccc2)N(C)C(=O)/C=C\c2ccc3c(c2)OCO3)cc1 (stereo not given) | 1.4%
COc1ccccc1N1CCN(C2CCN(C(=O)COc3ccccc3)CC2)CC1 | active: 89.8%
CCOc1ccc(C(=O)Nc2ccc3nc(Nc4cccc(C(F)(F)F)c4)cc(C)c3c2)cc1OCC | -8.3%
COc1ccc(-c2c(C)nn3c(C(F)(F)F)cc(-c4ccc(C)cc4)nc23)cc1 | 15.5%

Compound | inhibition
COc1ccc(C(CC(=O)Nc2cc(Cl)c(OC)cc2OC)N2Cc3ccccc3C2=O)cc1 (stereo not given) | -7.79%
COc1ccc(CNC(=O)Cn2c(=O)n3nc(-c4ccc(OC)cc4)nc3c3ccccc32)cc1 | -15.7%
CC(=O)c1cccc(NS(=O)(=O)c2ccc3[nH]c4c(c3c2)CCCCC4)c1 | -3.99%
O=C(Nc1cccc(Br)c1)N1CCN2CCCCC2C1 (stereo not given) | -14.8%
Cc1cccc(NC(=O)/C(C#N)=C/c2ccco2)c1 | 13.7%
COc1ccc(OC)c(CNC(=O)c2cc3c(Cl)nc4ccccc4c3s2)c1 | -5.75%
CCCNC(=O)Cn1nc(-c2ccc(OC)cc2)c2cnc3ccc(F)cc3c21 | -9.3%
COc1ccccc1CC(=O)Nc1ccc2nc(Nc3cccc(C(F)(F)F)c3)cc(C)c2c1 | -6.76%
O=C(Nc1nc2n(n1)C(c1ccc(F)cc1)C=C(c1ccc(Cl)cc1)N2)c1ccc([N+](=O)[O-])cc1 (stereo not given) | 10.8%
COc1ccc(NC(=O)c2cnn(-c3ccc(C)c(C)c3)c2C2CCNCC2)cc1OC | -9.05%
Cc1cccc(C2=Nc3ccccc3N=C(c3cc(Cl)ccc3O)C2)c1 | 3.93%
CCOc1ccc(NC(=O)CCc2c(C)nc3cc(-c4ccccc4OC)nn3c2C)cc1 | 16.6%
O=C(O)c1ccc(NS(=O)(=O)c2ccc(Cl)c(C(=O)Nc3ccccc3)c2)cc1 | 9.05%
Cc1ccc(N(C)S(=O)(=O)c2ccc3[nH]c(=O)ccc3c2)cc1 | 9.78%
Cc1c(NC(=O)Nc2ccc(Cl)c(Cl)c2)sc2nc3n(c(=O)c12)CCC(C)CC3 (stereo not given) | -1.49%
O=C(c1ccc(CS(=O)(=O)c2ccc(Br)cc2)o1)N1CCN(c2ccc(F)cc2)CC1 | 8.35%
Cc1ccc(NC(=O)c2sc3ncnc(N(C)C4CCCCC4)c3c2C)c(C)c1 | -3.62%
COC(=O)c1scc(-c2ccc(C)cc2)c1S(=O)(=O)N1CCN(c2ccc(F)cc2)CC1 | -2.83%
Nc1c(C(=O)NCc2cccs2)nnn1CC(=O)Nc1cccc(F)c1 | 16.5%
O=C(NCc1ccco1)c1ccc2c(c1)N(Cc1ccccc1)C(=O)c1ccccc1S2 | -16.6%

Compound | inhibition
CCC1CCCCN1C(=O)c1c[nH]c2ccc(S(=O)(=O)Nc3cccc(OC)c3)cc2c1=O (stereo not given) | 4.47%
CCOc1ccc(NC(=O)c2ccc3c(c2)OCCO3)cc1S(=O)(=O)N(CC)CC | active: 31.9%
Cc1cc(C)c(S(=O)(=O)NCCc2sc3nc(-c4ccc(F)cc4)nn3c2C)c(C)c1 | 25.3%
Cc1cc(C)cc(-n2ccn(CC(=O)c3ccc(F)cc3)c(=O)c2=O)c1 | -14.1%
O=S(=O)(NCC(c1ccc2c(c1)OCO2)N1CCN(c2ccccc2)CC1)c1ccccc1 (stereo not given) | active: 80.5%
O=C(NC1CCCCC1)c1ccc(CSc2nc3cccnc3n2Cc2cccc(F)c2)cc1 | -13.3%
CCOC(=O)c1cc(-c2ccc(C)cc2)n(CCCC(=O)Nc2cc(C)ccc2C)c1 | 7.04%
Cc1cccc(-n2c(Cc3cc(=O)[nH]c(=O)[nH]3)nnc2SCC(=O)Nc2cccc(C(F)(F)F)c2)c1 | active: 36.6%
Cc1cccc(C(=O)n2nc(C)c(S(=O)(=O)N3CCOCC3)c2C)c1 | -2.05%
CCCCC(=O)N1CCc2cc(OC)c(OC)cc2C1COc1ccc(C(=O)OCC)cc1 (stereo not given) | -7.35%
COCCCn1c(=N)c(C(=O)NC2CCCC2)cc2c(=O)n3cccc(C)c3nc21 | -0.763%
COc1ccc(Cn2ccc3nc(C)c(C(=O)Nc4cc(OC)c(OC)c(OC)c4)cc3c2=O)cc1 | -12%
Cc1cc(C)n(C(C)CC(=O)Nc2ccc(Cl)cc2C)n1 (stereo not given) | 13.8%
Cc1c(C(=O)NC2CCN(Cc3ccccc3)C2)oc2ccc(Br)cc12 (stereo not given) | active: 37.7%
COc1cccc(CN2C(=O)C3(SCC(=O)N3c3ccc(C)c(Cl)c3)c3ccccc32)c1 (stereo not given) | 3.06%
Cc1ccc(-n2c(=O)c3ccc(C(=O)NCc4ccco4)cc3n(CC(=O)Nc3ccc(C)c(F)c3)c2=O)cc1 | -9.9%
Cc1ccc(NS(=O)(=O)c2ccc3c(c2)N(C)C(=O)CC(=O)N3C)cc1Cl | 15.8%
COc1ccc(CNC(=O)c2ccc3c(c2)nc2n3CCCCC2)cc1 | -3.46%
CC1CCc2c(sc(NC(=S)NC(=O)c3ccccc3)c2C#N)C1 (stereo not given) | active: 37.5%
CCC1CN(C(=O)N2CCC(C(=O)N3CCN(c4ccccc4)CC3)CC2)c2ccccc2O1 (stereo not given) | 15.3%
